Assay results reported in a collection of fitness landscapes (doi:10.1126/science.1257360).
This is one part of the list.

B1: PhoQ; a variant is named by its letters at X, in order, P23837 (parent)
chain: MKKLLRLFFPLSLRVRFLLATAAVVLVLSLAYGMVALIGYSVSFDKTTFRLLRGESNLFYTLAKWENNKLHVELPENIDKQSPTMTLIYDENGQLLWAQRDVPWLMKMIQPDWLKSNGFHEIEADVNDTSLLLSGDHSIQQQLQEVREDDDDAEMTHSVAVNVYPATSRMPKLTIVVVDTIPVELKSSYMVWSWFIYVLSANLLLVIPLLWVAAWWSLRPIEALAKEVRELEEHNRELLNPATTRELTSLVRNLNRLLKSERERYDKYRTTLTDLTHSLKTPLXXLQXXLRSLRSEKMSVSDAEPVMLEQISRISQQIGYYLHRASMRGGTLLSRELHPVAPLLDNLTSALNKVYQRKGVNISLDISPEISFVGEQNDFVEVMGNVLDNACKYCLEFVEISARQTDEHLYIVVEDDGPGIPLSKREVIFDRGQRVDTLRPGQGVGLAVAREITEQYEGKIVAGESMLGGARMEVIFGRQHSAPKDE

Variants of: B1
Test: enrichment ratio after two sorts for PhoP signalling (ratio (wild type AVST 3.29)); higher = more functional
Conditions: with PhoP (E. coli)

| Variant | enrichment ratio |
| --- | --- |
| TYAC | 0.469 |
| DVTG | ≤ 0.25 |
| FISG | ≤ 0.25 |
| FDYN | ≤ 0.25 |
| RKWN | ≤ 0.25 |
| QINP | ≤ 0.25 |
| QCLL | 2.35 |
| FVLA | ≤ 0.25 |
| GEVQ | ≤ 0.25 |
| KPWY | ≤ 0.25 |
| HMYN | ≤ 0.25 |
| YSES | ≤ 0.25 |
| WTFQ | ≤ 0.25 |
| PWCD | ≤ 0.25 |
| ESSC | ≤ 0.25 |
| RKNG | ≤ 0.25 |
| YIVH | ≤ 0.25 |
| LEFN | 0.973 |
| WFIK | ≤ 0.25 |
| DKPF | ≤ 0.25 |
| ITAE | ≤ 0.25 |
| SYGL | ≤ 0.25 |
| ERII | ≤ 0.25 |
| SVQY | ≤ 0.25 |
| RLAQ | ≤ 0.25 |

| Variant | enrichment ratio |
| --- | --- |
| RCVV | ≤ 0.25 |
| VSGR | ≤ 0.25 |
| HHHG | ≤ 0.25 |
| FYEV | ≤ 0.25 |
| ARKD | ≤ 0.25 |
| PPSN | ≤ 0.25 |
| PVEW | ≤ 0.25 |
| WIVM | ≤ 0.25 |
| KGLY | ≤ 0.25 |
| ECHK | ≤ 0.25 |
| TCDD | ≤ 0.25 |
| TTKV | ≤ 0.25 |
| QMHH | ≤ 0.25 |
| ADIP | ≤ 0.25 |
| LDVE | ≤ 0.25 |
| KTIM | ≤ 0.25 |
| DKLW | ≤ 0.25 |
| IGNQ | ≤ 0.25 |
| HALV | 3.66 |
| DRCF | ≤ 0.25 |
| KDQS | ≤ 0.25 |
| KSNG | ≤ 0.25 |
| FFAF | ≤ 0.25 |
| FDVT | ≤ 0.25 |
| YYLF | ≤ 0.25 |

| Variant | enrichment ratio |
| --- | --- |
| VTMC | ≤ 0.25 |
| HGEH | ≤ 0.25 |
| RPNC | ≤ 0.25 |
| STYC | 0.334 |
| ITNN | ≤ 0.25 |
| INEA | ≤ 0.25 |
| NHIF | ≤ 0.25 |
| ASHY | ≤ 0.25 |
| MEQI | ≤ 0.25 |
| MQAN | 2.41 |
| LVFL | ≤ 0.25 |
| EQMF | ≤ 0.25 |
| PATR | ≤ 0.25 |
| DSQD | ≤ 0.25 |
| QVRT | ≤ 0.25 |
| PSPL | ≤ 0.25 |
| TVPE | ≤ 0.25 |
| EDCF | ≤ 0.25 |
| ENTF | ≤ 0.25 |
| QLSG | 1.54 |
| SIKH | ≤ 0.25 |
| NNCL | 2.05 |
| ITAV | ≤ 0.25 |
| LYAV | ≤ 0.25 |
| FAIM | 0.693 |

| Variant | enrichment ratio |
| --- | --- |
| YQAY | ≤ 0.25 |
| LFRA | ≤ 0.25 |
| MFHS | ≤ 0.25 |
| VMKT | ≤ 0.25 |
| FPVI | ≤ 0.25 |
| NESK | ≤ 0.25 |
| EFNQ | ≤ 0.25 |
| EDMY | ≤ 0.25 |
| GRTW | ≤ 0.25 |
| DDFK | ≤ 0.25 |
| TQVF | 4.29 |
| KRAV | ≤ 0.25 |
| KKKL | ≤ 0.25 |
| GFME | ≤ 0.25 |
| GRWF | 0.713 |
| PFCV | ≤ 0.25 |
| YSYW | ≤ 0.25 |
| TWAM | ≤ 0.25 |
| SNIF | ≤ 0.25 |
| EILF | ≤ 0.25 |
| KPLL | ≤ 0.25 |
| HAAN | ≤ 0.25 |
| YRHC | ≤ 0.25 |
| QRPP | ≤ 0.25 |
| EGVA | ≤ 0.25 |

| Variant | enrichment ratio |
| --- | --- |
| EPVW | ≤ 0.25 |
| STAI | 11 |
| GLQF | ≤ 0.25 |
| LNGN | ≤ 0.25 |
| ETAS | ≤ 0.25 |
| YMVC | ≤ 0.25 |
| TSPD | ≤ 0.25 |
| IYCT | ≤ 0.25 |
| PGKR | ≤ 0.25 |
| AWRQ | ≤ 0.25 |
| MCSA | ≤ 0.25 |
| WSMN | ≤ 0.25 |
| DAQL | ≤ 0.25 |
| VMNF | ≤ 0.25 |
| PIYR | ≤ 0.25 |
| TFKN | 0.951 |
| VTSL | 6.87 |
| VDEQ | ≤ 0.25 |
| MDMV | 1.28 |
| EFYF | ≤ 0.25 |
| GAIS | ≤ 0.25 |
| PHIC | ≤ 0.25 |
| IPGK | ≤ 0.25 |
| LMIE | ≤ 0.25 |
| HYII | ≤ 0.25 |

| Variant | enrichment ratio |
| --- | --- |
| VCFQ | ≤ 0.25 |
| QELA | ≤ 0.25 |
| IILC | ≤ 0.25 |
| DMYP | ≤ 0.25 |
| DMSH | 0.854 |
| VAPP | ≤ 0.25 |
| LVKN | ≤ 0.25 |
| MNAI | 4.33 |
| GYIA | ≤ 0.25 |
| EKSV | ≤ 0.25 |
| MNKM | ≤ 0.25 |
| YYSV | ≤ 0.25 |
| PLVF | ≤ 0.25 |
| FEFC | ≤ 0.25 |
| RTSG | ≤ 0.25 |
| YFVC | ≤ 0.25 |
| PIKS | ≤ 0.25 |
| PWFW | ≤ 0.25 |
| LGHP | ≤ 0.25 |
| GPEF | ≤ 0.25 |
| TCRA | ≤ 0.25 |
| FCNW | ≤ 0.25 |
| TDKV | ≤ 0.25 |
| RVHR | ≤ 0.25 |
| VMYI | ≤ 0.25 |

| Variant | enrichment ratio |
| --- | --- |
| FSRS | ≤ 0.25 |
| FIRQ | ≤ 0.25 |
| NLTD | ≤ 0.25 |
| NSWG | ≤ 0.25 |
| TQYI | ≤ 0.25 |
| VPCE | ≤ 0.25 |
| FRAA | ≤ 0.25 |
| EFNM | ≤ 0.25 |
| KVHF | ≤ 0.25 |
| IDIH | ≤ 0.25 |
| TTEV | 0.701 |
| GLIL | 1.59 |
| KELF | ≤ 0.25 |
| GEWV | ≤ 0.25 |
| PTCA | ≤ 0.25 |
| ICRD | ≤ 0.25 |
| SYNW | ≤ 0.25 |
| SEMW | ≤ 0.25 |
| NSSH | ≤ 0.25 |
| FDFC | ≤ 0.25 |
| GCEK | ≤ 0.25 |
| KVFH | ≤ 0.25 |
| SIEE | ≤ 0.25 |
| WVDF | ≤ 0.25 |
| LTCA | 0.438 |

| Variant | enrichment ratio |
| --- | --- |
| GEVN | ≤ 0.25 |
| SSSR | ≤ 0.25 |
| AWDV | ≤ 0.25 |
| LAFS | ≤ 0.25 |
| VAML | 7.99 |
| VMWL | ≤ 0.25 |
| FPAM | ≤ 0.25 |
| TSWP | ≤ 0.25 |
| NETP | ≤ 0.25 |
| DEQI | ≤ 0.25 |
| QAAM | ≤ 0.25 |
| GNSD | ≤ 0.25 |
| SHCL | 7.86 |
| KEKL | ≤ 0.25 |
| ILWT | ≤ 0.25 |
| LRHW | 0.524 |
| FLGE | ≤ 0.25 |
| ILIH | ≤ 0.25 |
| HEAR | ≤ 0.25 |
| VYVD | ≤ 0.25 |
